# Source: PubChem BioAssay (NCATS)
# The shares of active, inactive and inconclusive entries below differ from those in the screen. A call without a number means that no potency is given here. Where the call is inconclusive, the potency comes from a doubtful curve fit. Activity calls are given as the source filed them. Calls follow the shape of the dose curve; as a rule, active = well fitted cell-killing curve with a large enough effect; inconclusive = small, poorly fitted or top-dose-only effect, or effect the other way; inactive = no such curve, though single readings can be large or run the other way.
# Assay: Viability qHTS for spleen associated tyrosine kinase inhibitor (SYKi) naive MV4-11 cells (AID 1963823); also: nearly all actives have a fitted effect of over 40% in size
# Conditions: MV4-11 AML viability, CellTiter-Glo luminescence, 72 h; viability (% of control): at 45 µM (top of the series)
# In short: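 SYKi-naive MV4-11 AML cells, 500 per well, were exposed to library compounds for 72 hr at 37 C, 5% CO2. Viability was then read by CellTiter-Glo luminescence after 10 min at room temperature.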
# Potency is read from the fitted curve at half-maximal effect; tags tell the direction and shape of the fitted curve.
Structure (SMILES),Potency,viability (% of control)
CC1(C)S[C@@H]2[C@H](NC(=O)[C@H](NC(=O)N3CCN(S(C)(=O)=O)C3=O)c3ccccc3)C(=O)N2[C@H]1C(=O)O,inactive,–
CN1[C@@H]2CC[C@H]1CC(OC(=O)C(O)c1ccccc1)C2 (some centres undefined),inactive,–
C=C(C)[C@H]1C[C@@H](O)C(=C)CC[C@@H](O)C(=C)[C@@H](O)C1,inactive,–
Cc1cc(C)cc(OCC2CNC(=O)O2)c1 (centres undefined),inactive,–
O=C(/C=C/c1ccc(O)cc1)OC[C@@]1(O)C=C[C@@H]2C(C(=O)O)=CO[C@@H](O[C@@H]3O[C@H](CO)[C@@H](O)[C@H](O)[C@H]3O)[C@@H]21,"inconclusive: 2.82 µM [cytotoxic, single point]",–
COc1cc(/C=C/C(=O)O[C@H]2[C@H](O)[C@@H](CO)O[C@@]2(CO)O[C@H]2O[C@H](CO)[C@@H](O)[C@H](O)[C@H]2O)cc(OC)c1O,inactive,–
CC1=C[C@H](O)[C@H]2C(C)(C)CCC[C@]2(C)[C@@]1(O)CO,inactive,–
CCCC(Nc1nc(-c2ccc(NC(=O)NCC)c(OC)c2)ncc1C)c1cccnc1 (centres undefined),active: 0.058 µM,–
C=C[C@H]1C(O[C@@H]2O[C@H](CO)[C@@H](O)[C@H](O)[C@H]2O)OC=C2C(=O)N3CCc4c([nH]c5ccccc45)[C@H]3C[C@H]21 (some centres undefined),inactive,–
COc1nc(N)nc2c1ncn2C1OC(CO)C(O)C1O (centres undefined),"inconclusive: 0.0059 µM [cytotoxic, full curve, poor fit]",–
C[C@H](O)C(=O)Nc1c(I)c(C(=O)NC(CO)CO)c(I)c(C(=O)NC(CO)CO)c1I,inactive,–
CC/C=C\CC1C(CC(=O)O)CCC1OC1OC(CO)C(O)C(O)C1O (centres undefined),inactive,–
Cc1ccc(NS(=O)(=O)c2cc3c(cc2F)NC(=O)CC3)cc1Cl,"inconclusive: 13 µM [cytotoxic, partial curve]",–
Cc1ccc(NS(=O)(=O)c2cc3c(cc2N[C@@H](C)CO)NC(=O)CC3)cc1Cl,active: 16.4 µM,–
OC[C@H]1O[C@@H](Oc2ccccc2)[C@H](O)[C@@H](O)[C@@H]1O,inactive,–
CCCCCCCCCCC(O)C1C=CC2C(=O)N(c3ccccc3)C(=O)C2N1Nc1ccc([N+](=O)[O-])cc1 (centres undefined),"inconclusive: 20.6 µM [cytotoxic, partial curve]",–
CCC(C)C(=O)O[C@H]1[C@H](O)[C@@]2(COC(C)=O)C(CC1(C)C)C1=CCC3[C@@]4(C)CC[C@H](O[C@@H]5O[C@H](C(=O)O)[C@@H](O)[C@H](O)[C@H]5O)[C@@](C)(CO)C4CC[C@@]3(C)[C@]1(C)C[C@@H]2O (some centres undefined),"inconclusive: 3.48 µM [cytotoxic, single point]",–
NC(=O)NCCCC(NC(=O)Cc1ccccc1)C(=O)O (centres undefined),inactive,–
COc1ccc([C@H]2OC[C@H]3O[C@@H](O[C@H]4[C@@H]2NC[C@@H]4O)[C@H](O)[C@H]3O)cc1,active: 0.64 µM,–
Oc1ccc2c(c1)OCC1(O)Cc3cc(O)c(O)cc3C21 (centres undefined),active: 3.66 µM,–
CCC(C)C(=O)OC1CC(O)C23C4OCC5(C(O)CC2C1(C)C(O)O4)C3C(=O)CC1(C)C(c2ccoc2)CC2OC215 (centres undefined),active: 0.893 µM,–
Cc1ccc(NS(=O)(=O)c2cc3c(cc2N[C@@H](C)CO)NC(=O)CC3)cc1C,active: 20.6 µM,–
O=C(Cc1ccccc1)OC[C@H]1O[C@H](O[C@H]2O[C@H](CO)[C@@H](O)[C@H](O)[C@H]2O)[C@H](O)[C@@H](O)[C@@H]1O,inactive,–
C=C1CCC2C(C)(CO[C@@H]3O[C@H](CO)[C@@H](O)[C@H](O)[C@H]3O)C(O)CCC2(C)C1C(=O)CC1=CCOC1=O (some centres undefined),inactive,–
O=C(NCC(O)CO)c1ccncc1Nc1ccc(I)cc1F (centres undefined),active: 0.366 µM,–
COc1c2c(c(C)c3c1C(=O)OC3)OC1(C)CC(O)C34OC(O)(CCC3(C)C1C2)OC4(C)C (centres undefined),inactive,–
CC[C@H]1OC(=O)[C@H](C)[C@@H](O[C@H]2C[C@@](C)(OC)[C@@H](O)[C@H](C)O2)[C@H](C)[C@@H](O[C@@H]2O[C@H](C)C[C@H](N(C)C)[C@H]2O)[C@](C)(O)C[C@@H](C)/C(=N/OCOCCOC)[C@H](C)[C@@H](O)[C@]1(C)O,inactive,–
CC[C@@H]1C(=O)O[C@]23C=C[C@@H]4C(C(=O)OC)=CO[C@H](O[C@@H]12)[C@@H]43,active: 3.66 µM,–
C=CC(C)(O)CC/C=C(\C)C(=O)OC1CC2(C(=O)O)CCC3(C)C(=CCC4C5(C)CCC(OC6OC(COC7OCC(O)C(O)C7O)C(O)C(OC7OCC(O)C(O)C7O)C6OC6OC(CO)C(O)C(O)C6OC6OCC(O)C(O)C6O)C(C)(C)C5CCC43C)C2CC1(C)C (centres undefined),–,inactive: 73.5% [at 9.25 µM]
